# Test results reported in PubChem BioAssay AID555 (SRMLSC, 2006).
# This is one part of the list. Shown are side measurements of this screen, not its main read-out; they come without a call. Compounds called inactive in the main read-out are mostly missing here.
# Test system: mevalonate kinase [Streptococcus pneumoniae D39]
# Assay: S. pneumoniae MK inhibitors, primary screen, biochemical, PK/LDH-coupled NADH absorbance (AID 555)
# Conditions: purified MK, PK/LDH-coupled NADH absorbance 340 nm; measured here: pilot screen replicates; at 10 µM; stronger effect = higher value
row,Structure (SMILES),inhibition [%]
1,CCOc1ccc2c(c1)c1nnc(SCC(=O)N3CCC(C)CC3)nc1n2C,0
2,O=S(=O)(c1ccc(F)cc1)N1CCC(N2CCCC2)CC1,2.5
3,CCOC(=O)N1CCN(C(=O)CN(Cc2ccccc2)S(=O)(=O)c2ccc(OC)c(C)c2)CC1,10.5
4,CCOc1cccc(OCCOCCN2CCCC2)c1,0
5,COc1cccc(N2CCN(Cc3cccnc3)CC2)c1,1.5
6,C=CCn1cnc2c(NCc3ccccc3)ncnc21,12
7,Cn1cccc1Cc1nnc(SCC(=O)NCc2ccc(F)cc2)n1-c1ccc(F)cc1,45.5
8,CCOC(=O)C1CCN(Cc2ccc(OC)c(C)c2OC)CC1,3
9,COc1c(Br)cc2c(C)c(C(=O)O)oc2c1Br,0
10,CCN(CC)C(=O)C1CCCN(Cc2ccc(N(C)C)cc2)C1 (stereo not given),3.5
11,CCC(=O)Nc1ccc(NC(=O)c2ccccn2)cn1,15.5
12,O=C(C(c1ccccc1)c1ccccc1)N1CCN(Cc2ccccn2)CC1,1
13,COc1cc(NC(=O)c2cc(CC(C)C)on2)c(OC)cc1Cl,9
14,Clc1ccc(SCCn2ccnc2)cc1,0
15,CN(C)c1ccc(CNCCC2(O)CCOC(C)(C)C2)cc1 (stereo not given),3
16,CCOc1cc(CN2CCN(C(=O)c3ccco3)CC2)ccc1OC,0.5
17,COc1cccc(CN2CCN(C(=O)CC(C)C)CC2)c1,0.5
18,CCOC(=O)C1CCN(Cc2ccc(C(=O)OC)cc2)CC1,0

row,Structure (SMILES),inhibition [%]
1,Cc1ccc(CNC(=O)C2CCN(S(=O)(=O)c3c(C)noc3C)CC2)cc1,10.5
2,COc1cc(C2c3c(n[nH]c3C)C(=O)N2c2ccc(C)cc2)ccc1O (stereo not given),88
3,FC(F)(F)c1cccc(N2CCN(Cc3cccnc3)CC2)c1,3.5
4,CCc1ccc(CN(C)CCc2ccccn2)cc1,0
5,CCOC(=O)C1CCN(Cc2ccc(F)c(Br)c2)CC1,0
6,CCOc1ccccc1OCCCCN1CCCC1,3
7,CN1CCN(c2nc3c(c(=O)n(C)c(=O)n3C)n2Cc2cccc3ccccc23)CC1,16
8,CC1=NN(c2ccccc2)C(=O)C1,0
9,COc1ccccc1C(=O)NCCc1nc2ccccc2n1C,46
10,CCc1ccccc1OCCCCN1CCCC1,0
11,Cc1cccc(NC(=O)c2cnc3sccn3c2=O)n1,14.5
12,Oc1ccc(-c2n[nH]c(=S)n2Cc2ccccc2)cc1,12.5
13,COc1ccc(C)cc1NCc1cccc(OC)c1OC,1
14,COc1ccc(-c2nc(C#N)c(N3CCOCC3)o2)cc1OC,23.5
15,COc1ccc(CN2C(=O)c3cccnc3C2Nc2cc(Cl)ccc2OC)cc1 (stereo not given),44.5
16,C=CCc1ccccc1OCCCCN1CCCC1,0
17,Cc1nn(-c2ccccc2)c2c1C(O)n1c(nc3ccccc31)S2 (stereo not given),20.5
